From article PMC11845791
These are yes or no findings as the source states them, for the method shown. Binding seen in cells or lysates may run through a third protein. Some binding calls cover weakened binding; strength is not graded here. For some assays here: Sequences can lack the tags named with a protein. Each block holds one binder with its values, some of them ahead of it.

Assays:
[1] = molecular target: T1, nucleotide pyrophosphatase (NPPS), endogenous in H292 isogenic cells (human (endogenous in H292)) (UniProt P22413); assay: co-IP; endogenous proteins; NP-40 lysates of H292 isogenic cells (KRAS WT and KRAS G12C) incubated with anti-NPPS or anti-HK1 at 4 °C overnight, Protein A/G magnetic beads 3 h; Western blot
T1 sequence: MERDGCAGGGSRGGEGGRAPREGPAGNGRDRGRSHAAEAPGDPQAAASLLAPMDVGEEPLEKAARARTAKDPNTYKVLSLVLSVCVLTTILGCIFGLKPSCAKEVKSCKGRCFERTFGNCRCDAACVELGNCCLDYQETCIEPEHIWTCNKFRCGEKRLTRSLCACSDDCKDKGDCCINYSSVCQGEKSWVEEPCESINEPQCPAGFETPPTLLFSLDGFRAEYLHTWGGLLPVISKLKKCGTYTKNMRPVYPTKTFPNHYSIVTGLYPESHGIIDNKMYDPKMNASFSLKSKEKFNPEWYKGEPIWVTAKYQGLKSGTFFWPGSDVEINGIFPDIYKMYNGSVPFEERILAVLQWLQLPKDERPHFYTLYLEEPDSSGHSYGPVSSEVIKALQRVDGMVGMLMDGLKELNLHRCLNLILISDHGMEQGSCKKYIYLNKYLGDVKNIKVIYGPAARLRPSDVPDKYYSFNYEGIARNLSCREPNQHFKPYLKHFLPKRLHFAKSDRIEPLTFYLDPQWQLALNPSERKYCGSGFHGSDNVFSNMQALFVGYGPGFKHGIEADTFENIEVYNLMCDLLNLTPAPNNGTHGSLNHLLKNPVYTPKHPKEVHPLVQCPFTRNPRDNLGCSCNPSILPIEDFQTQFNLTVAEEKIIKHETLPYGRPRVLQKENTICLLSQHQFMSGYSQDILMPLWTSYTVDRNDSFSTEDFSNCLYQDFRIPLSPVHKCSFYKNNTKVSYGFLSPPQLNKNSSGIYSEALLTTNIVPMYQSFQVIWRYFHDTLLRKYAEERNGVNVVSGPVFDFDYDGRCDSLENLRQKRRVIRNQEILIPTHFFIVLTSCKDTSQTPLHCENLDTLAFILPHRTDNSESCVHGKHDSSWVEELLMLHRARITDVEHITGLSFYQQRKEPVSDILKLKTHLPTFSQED

[2] = molecular target: T2, Flag-NPPS (human NPPS with a C-terminal 3 × Flag) (human) (UniProt P22413); assay: co-IP; HEK293T cells cotransfected with Flag-NPPS and HA-HK1 or HK1 truncations and deletions; NP-40 lysates with anti-FLAG M2 magnetic beads at 4 °C overnight; Western blot
T2 sequence: T1 sequence

B1: hexokinase 1 (HK1), endogenous in H292 isogenic cells (protein, UniProt P19367-1 1-917)
chain: MIAAQLLAYYFTELKDDQVKKIDKYLYAMRLSDETLIDIMTRFRKEMKNGLSRDFNPTATVKMLPTFVRSIPDGSEKGDFIALDLGGSSFRILRVQVNHEKNQNVHMESEVYDTPENIVHGSGSQLFDHVAECLGDFMEKRKIKDKKLPVGFTFSFPCQQSKIDEAILITWTKRFKASGVEGADVVKLLNKAIKKRGDYDANIVAVVNDTVGTMMTCGYDDQHCEVGLIIGTGTNACYMEELRHIDLVEGDEGRMCINTEWGAFGDDGSLEDIRTEFDREIDRGSLNPGKQLFEKMVSGMYLGELVRLILVKMAKEGLLFEGRITPELLTRGKFNTSDVSAIEKNKEGLHNAKEILTRLGVEPSDDDCVSVQHVCTIVSFRSANLVAATLGAILNRLRDNKGTPRLRTTVGVDGSLYKTHPQYSRRFHKTLRRLVPDSDVRFLLSESGSGKGAAMVTAVAYRLAEQHRQIEETLAHFHLTKDMLLEVKKRMRAEMELGLRKQTHNNAVVKMLPSFVRRTPDGTENGDFLALDLGGTNFRVLLVKIRSGKKRTVEMHNKIYAIPIEIMQGTGEELFDHIVSCISDFLDYMGIKGPRMPLGFTFSFPCQQTSLDAGILITWTKGFKATDCVGHDVVTLLRDAIKRREEFDLDVVAVVNDTVGTMMTCAYEEPTCEVGLIVGTGSNACYMEEMKNVEMVEGDQGQMCINMEWGAFGDNGCLDDIRTHYDRLVDEYSLNAGKQRYEKMISGMYLGEIVRNILIDFTKKGFLFRGQISETLKTRGIFETKFLSQIESDRLALLQVRAILQQLGLNSTCDDSILVKTVCGVVSRRAAQLCGAGMAAVVDKIRENRGLDRLNVTVGVDGTLYKLHPHFSRIMHQTVKELSPKCNVSFLLSEDGSGKGAALITAVGVRLRTEASS
- binding [1]: binds

B3: HK1-∆N’ (22–474 aa deletion) with a C-terminal HA (protein, UniProt P19367-1)
chain: MIAAQLLAYYFTELKDDQVKKAHFHLTKDMLLEVKKRMRAEMELGLRKQTHNNAVVKMLPSFVRRTPDGTENGDFLALDLGGTNFRVLLVKIRSGKKRTVEMHNKIYAIPIEIMQGTGEELFDHIVSCISDFLDYMGIKGPRMPLGFTFSFPCQQTSLDAGILITWTKGFKATDCVGHDVVTLLRDAIKRREEFDLDVVAVVNDTVGTMMTCAYEEPTCEVGLIVGTGSNACYMEEMKNVEMVEGDQGQMCINMEWGAFGDNGCLDDIRTHYDRLVDEYSLNAGKQRYEKMISGMYLGEIVRNILIDFTKKGFLFRGQISETLKTRGIFETKFLSQIESDRLALLQVRAILQQLGLNSTCDDSILVKTVCGVVSRRAAQLCGAGMAAVVDKIRENRGLDRLNVTVGVDGTLYKLHPHFSRIMHQTVKELSPKCNVSFLLSEDGSGKGAALITAVGVRLRTEASS
- binding [2]: no binding

B5: HK1-∆MBD (1–21 aa deletion) with a C-terminal HA (domain or fragment, UniProt P19367-1 22-917)
chain: IDKYLYAMRLSDETLIDIMTRFRKEMKNGLSRDFNPTATVKMLPTFVRSIPDGSEKGDFIALDLGGSSFRILRVQVNHEKNQNVHMESEVYDTPENIVHGSGSQLFDHVAECLGDFMEKRKIKDKKLPVGFTFSFPCQQSKIDEAILITWTKRFKASGVEGADVVKLLNKAIKKRGDYDANIVAVVNDTVGTMMTCGYDDQHCEVGLIIGTGTNACYMEELRHIDLVEGDEGRMCINTEWGAFGDDGSLEDIRTEFDREIDRGSLNPGKQLFEKMVSGMYLGELVRLILVKMAKEGLLFEGRITPELLTRGKFNTSDVSAIEKNKEGLHNAKEILTRLGVEPSDDDCVSVQHVCTIVSFRSANLVAATLGAILNRLRDNKGTPRLRTTVGVDGSLYKTHPQYSRRFHKTLRRLVPDSDVRFLLSESGSGKGAAMVTAVAYRLAEQHRQIEETLAHFHLTKDMLLEVKKRMRAEMELGLRKQTHNNAVVKMLPSFVRRTPDGTENGDFLALDLGGTNFRVLLVKIRSGKKRTVEMHNKIYAIPIEIMQGTGEELFDHIVSCISDFLDYMGIKGPRMPLGFTFSFPCQQTSLDAGILITWTKGFKATDCVGHDVVTLLRDAIKRREEFDLDVVAVVNDTVGTMMTCAYEEPTCEVGLIVGTGSNACYMEEMKNVEMVEGDQGQMCINMEWGAFGDNGCLDDIRTHYDRLVDEYSLNAGKQRYEKMISGMYLGEIVRNILIDFTKKGFLFRGQISETLKTRGIFETKFLSQIESDRLALLQVRAILQQLGLNSTCDDSILVKTVCGVVSRRAAQLCGAGMAAVVDKIRENRGLDRLNVTVGVDGTLYKLHPHFSRIMHQTVKELSPKCNVSFLLSEDGSGKGAALITAVGVRLRTEASS
- binding [2]: binds

Next, values leading:

- binding [2]: binds
B2: HA-HK1 (human HK1 with a C-terminal HA) (protein, UniProt P19367-1 1-917)
chain: B1 chain

- binding [2]: binds
B4: HK1-∆C (475–917 aa deletion) with a C-terminal HA (domain or fragment, UniProt P19367-1 1-474)
chain: MIAAQLLAYYFTELKDDQVKKIDKYLYAMRLSDETLIDIMTRFRKEMKNGLSRDFNPTATVKMLPTFVRSIPDGSEKGDFIALDLGGSSFRILRVQVNHEKNQNVHMESEVYDTPENIVHGSGSQLFDHVAECLGDFMEKRKIKDKKLPVGFTFSFPCQQSKIDEAILITWTKRFKASGVEGADVVKLLNKAIKKRGDYDANIVAVVNDTVGTMMTCGYDDQHCEVGLIIGTGTNACYMEELRHIDLVEGDEGRMCINTEWGAFGDDGSLEDIRTEFDREIDRGSLNPGKQLFEKMVSGMYLGELVRLILVKMAKEGLLFEGRITPELLTRGKFNTSDVSAIEKNKEGLHNAKEILTRLGVEPSDDDCVSVQHVCTIVSFRSANLVAATLGAILNRLRDNKGTPRLRTTVGVDGSLYKTHPQYSRRFHKTLRRLVPDSDVRFLLSESGSGKGAAMVTAVAYRLAEQHRQIEETL
